For 61 compounds, EC50 results are on record in US12703706B2, “Anthelmintic compounds comprising a thienopyridine structure” (Intervet Inc., priority 2020, dated 2026).

Each structure is given as a SMILES string.

This assay deals with Caenorhabditis elegans slo-1a (Caenorhabditis elegans, UniProt Q95V25). The experiment in a line: Agonistic activity at C. elegans Slo-1a, FLIPR membrane potential in CHO K1 cells. Particulars: EC50 value, CHO K1 cells stably transfected. The source says: In Vitro Assay: Agonistic Activity at C. elegans Slo-1a
Chain of UniProt Q95V25 (Q95V25 whole entry): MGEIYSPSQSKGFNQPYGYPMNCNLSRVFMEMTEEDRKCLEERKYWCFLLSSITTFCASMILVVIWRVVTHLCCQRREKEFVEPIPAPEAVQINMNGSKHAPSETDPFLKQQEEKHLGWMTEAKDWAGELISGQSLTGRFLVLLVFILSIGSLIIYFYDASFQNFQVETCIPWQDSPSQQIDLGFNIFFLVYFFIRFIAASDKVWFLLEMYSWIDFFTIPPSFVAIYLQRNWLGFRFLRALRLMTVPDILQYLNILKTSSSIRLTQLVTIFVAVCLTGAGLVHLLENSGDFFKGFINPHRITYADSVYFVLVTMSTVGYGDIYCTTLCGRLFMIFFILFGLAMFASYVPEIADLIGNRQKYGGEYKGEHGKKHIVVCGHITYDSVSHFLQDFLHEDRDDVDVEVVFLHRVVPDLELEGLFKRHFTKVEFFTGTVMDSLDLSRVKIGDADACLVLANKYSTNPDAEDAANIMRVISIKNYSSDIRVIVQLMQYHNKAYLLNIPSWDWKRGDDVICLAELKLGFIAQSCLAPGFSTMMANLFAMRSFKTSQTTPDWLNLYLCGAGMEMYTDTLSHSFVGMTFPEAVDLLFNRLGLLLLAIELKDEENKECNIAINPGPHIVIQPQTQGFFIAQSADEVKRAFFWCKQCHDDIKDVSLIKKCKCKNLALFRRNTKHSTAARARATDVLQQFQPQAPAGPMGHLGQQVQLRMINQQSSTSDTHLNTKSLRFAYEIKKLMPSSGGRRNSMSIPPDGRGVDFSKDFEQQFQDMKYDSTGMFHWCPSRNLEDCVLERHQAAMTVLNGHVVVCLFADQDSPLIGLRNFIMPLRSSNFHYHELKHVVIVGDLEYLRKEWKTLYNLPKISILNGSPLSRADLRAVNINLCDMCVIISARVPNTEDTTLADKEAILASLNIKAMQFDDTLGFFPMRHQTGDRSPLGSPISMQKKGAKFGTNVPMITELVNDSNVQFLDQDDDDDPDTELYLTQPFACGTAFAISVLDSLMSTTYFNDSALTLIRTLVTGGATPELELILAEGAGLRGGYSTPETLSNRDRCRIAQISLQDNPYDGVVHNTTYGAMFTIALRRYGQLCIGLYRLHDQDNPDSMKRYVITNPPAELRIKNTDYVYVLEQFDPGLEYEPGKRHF
A CHO K1 cell line stably transfected with the Caenorhabditis elegans slo-1a (accession no Y51A2D.19a) was established.
The complete measurement takes 150 s.

As to `O=C(N[C@H]1CCOc2ccccc21)c1cnc2c(-c3cc(Cl)cc(Cl)c3)csc2c1N1CCOCC1` [Compound 1], the concentration giving a half-maximal response (EC50) was less than 1000 nM.

`C[C@H](NC(=O)c1cnc2c(-c3cc(Cl)cc(Cl)c3)csc2c1N1CCOCC1)c1ccccc1` [Compound 2] registered a 50% effective concentration (EC50) of less than 10000 nM.

Turning to `O=C(N[C@H]1CCc2ccccc21)c1cnc2c(-c3cc(Cl)cc(Cl)c3)csc2c1N1CCOCC1` [Compound 3], the EC50 is less than 1000 nM.

In turn, `O=C(N[C@H]1CCOc2ccccc21)c1cnc2c(-c3cccc(Cl)c3Cl)csc2c1N1CCOCC1` [Compound 4, (S)—N-(chroman-4-yl)-3-(2,3-dichlorophenyl)-7-morpholinothieno[3,2-b]pyridine-6-carboxamide] displayed a half-maximal effective concentration (EC50) of less than 1000 nM.

`CN(C)c1c(C(=O)N[C@H]2CCOc3ccccc32)cnc2c(-c3cc(Cl)cc(Cl)c3)csc12` [Compound 7] had a 50% effective concentration (EC50) of less than 1000 nM.

The compound `C[C@H](NC(=O)c1cnc2c(-c3cc(Cl)cc(Cl)c3)csc2c1N(C)C)c1ccccc1` [Compound 8] returned an EC50 of less than 10000 nM.

For `CN(C)c1c(C(=O)N[C@H]2CCc3ccccc32)cnc2c(-c3cc(Cl)cc(Cl)c3)csc12` [Compound 9], the EC50 was less than 1000 nM.

On to `CN(C)c1c(C(=O)N[C@H]2CCOc3ccccc32)cnc2c(-c3cccc(Cl)c3Cl)csc12` [Compound 10], for which the concentration for a half-maximal effect (EC50) is less than 1000 nM.

`CN(C)c1c(C(=O)N[C@H]2CCc3ccccc32)cnc2c(-c3cccc(Cl)c3Cl)csc12` [Compound 12] registered an EC50 of less than 1000 nM.

For `O=C(N[C@H]1CCOc2ccccc21)c1cnc2c(-c3cc(F)cc(F)c3F)csc2c1N1CCOCC1` [Compound 15], the 50% effective concentration (EC50) is less than 10000 nM.

Compound `CN(C)c1c(C(=O)N[C@H]2CCCc3ccccc32)cnc2c(-c3cccc(Cl)c3Cl)csc12` [Compound 21] returned an EC50 of less than 1000 nM.

Compound `CN(C)c1c(C(=O)N[C@H]2CCOc3ccccc32)cnc2c(-c3cc(F)cc(F)c3F)csc12` [Compound 23] came in with an EC50 of less than 1000 nM.

As to `O=C(N[C@H]1CCOc2ccccc21)c1cnc2c(-c3cccc(F)c3F)csc2c1N1CCOCC1` [Compound 24], the EC50 was less than 1000 nM.

Take `O=C(N[C@H]1CCOc2ccccc21)c1cnc2c(-c3cccc(Cl)c3Cl)csc2c1N1CC(F)(F)C1` [Compound 26]: the EC50 is less than 1000 nM.

As for `O=C(NC1CCOc2ccccc21)c1cnc2c(-c3cccc(Cl)c3Cl)csc2c1N1CC(F)(F)C1` (stereo not shown) [Compound 27], the 50% effective concentration (EC50) was less than 1000 nM.

Turning to `CN(C)c1c(C(=O)NC2CCOc3ccccc32)cnc2c(-c3cccc(Cl)c3Cl)csc12` (stereo not shown) [Compound 28], the concentration for a half-maximal effect (EC50) is less than 1000 nM.

`CN(C)c1c(C(=O)N[C@H]2CCCc3ccccc32)cnc2c(-c3cc(Cl)cc(Cl)c3)csc12` [Compound 31] had an EC50 of less than 1000 nM.

The compound `O=C(N[C@H]1CCCc2ccccc21)c1cnc2c(-c3cc(Cl)cc(Cl)c3)csc2c1N1CCOCC1` [Compound 32] yielded a concentration giving a half-maximal response (EC50) of less than 1000 nM.

`Cc1sc2c(N(C)C)c(C(=O)N[C@H]3CCc4ccccc43)cnc2c1-c1cc(Cl)cc(Cl)c1` [Compound 33] registered a concentration giving a half-maximal response (EC50) of less than 1000 nM.

`Cc1sc2c(N(C)C)c(C(=O)N[C@H]3CCc4ccccc43)cnc2c1-c1cccc(Cl)c1Cl` [Compound 34] returned an EC50 of less than 1000 nM.

In turn, `Cc1sc2c(N(C)C)c(C(=O)N[C@H]3CCOc4ccccc43)cnc2c1-c1cccc(Cl)c1Cl` [Compound 36, (S)—N-(chroman-4-yl)-3-(2,3-dichlorophenyl)-7-dimethylamino-2-methylthieno[3,2-b]pyridine-6-carboxamide] displayed a concentration giving a half-maximal response (EC50) of less than 1000 nM.

Regarding `O=C(N[C@H]1CCc2ccccc21)c1cnc2c(-c3cccc(Cl)c3Cl)csc2c1N1CC(F)(F)C1` [Compound 39], the EC50 is less than 1000 nM.

Take `O=C(N[C@H]1CCc2ccccc21)c1cnc2c(-c3cc(F)cc(F)c3F)csc2c1N1CC(F)(F)C1` [Compound 41]: the EC50 is less than 10000 nM.

The compound `CN(C)c1c(C(=O)N[C@H]2CCOc3ccccc32)cnc2c(-c3cccc(F)c3F)csc12` [Compound 46] came in with an EC50 of less than 1000 nM.

`CN(C)c1c(C(=O)N[C@H]2CCOc3ccccc32)cnc2c(-c3cc(F)cc(F)c3)csc12` [Compound 51] showed an EC50 of less than 10000 nM.

For the compound `Cc1sc2c(N(C)C)c(C(=O)N[C@H]3CCOc4ccccc43)cnc2c1-c1cc(Cl)cc(Cl)c1` [Compound 53], the EC50 is less than 1000 nM.

Consider `Cc1sc2c(N3CC(F)(F)C3)c(C(=O)N[C@H]3CCCc4ccccc43)cnc2c1-c1cccc(Cl)c1Cl` [Compound 55], for which the EC50 was less than 1000 nM.

With `Cc1sc2c(N3CC(F)(F)C3)c(C(=O)N[C@H]3CCOc4ccccc43)cnc2c1-c1cccc(Cl)c1Cl` [Compound 56], the EC50 was less than 1000 nM.

Take `Cc1sc2c(N3CC(F)(F)C3)c(C(=O)N[C@H]3CCc4ccccc43)cnc2c1-c1cccc(Cl)c1Cl` [Compound 57]: the EC50 was less than 1000 nM.

In the case of `Cc1sc2c(N3CC(F)(F)C3)c(C(=O)N[C@H]3CCCc4ccccc43)cnc2c1-c1cc(Cl)cc(Cl)c1` [Compound 58], the concentration for a half-maximal effect (EC50) is less than 1000 nM.

With `Cc1sc2c(N3CC(F)(F)C3)c(C(=O)N[C@H]3CCOc4ccccc43)cnc2c1-c1cc(Cl)cc(Cl)c1` [Compound 59], the 50% effective concentration (EC50) was less than 1000 nM.

For the compound `Cc1sc2c(N3CC(F)C3)c(C(=O)N[C@H]3CCOc4ccccc43)cnc2c1-c1cccc(Cl)c1Cl` [Compound 62], the EC50 was less than 1000 nM.

Compound `Cc1sc2c(N3CC(F)C3)c(C(=O)N[C@H]3CCc4ccccc43)cnc2c1-c1cccc(Cl)c1Cl` [Compound 63] yielded an EC50 of less than 1000 nM.

With `Cc1sc2c(N3CC(F)C3)c(C(=O)N[C@H]3CCOc4ccccc43)cnc2c1-c1cc(Cl)cc(Cl)c1` [Compound 65], the EC50 is less than 1000 nM.

In the case of `Cc1sc2c(N3CC(F)C3)c(C(=O)N[C@H]3CCc4ccccc43)cnc2c1-c1cc(Cl)cc(Cl)c1` [Compound 66], the concentration giving a half-maximal response (EC50) was less than 1000 nM.

For `Cc1sc2c(N3CCOCC3)c(C(=O)N[C@H]3CCCc4ccccc43)cnc2c1-c1cc(Cl)cc(Cl)c1` [Compound 67], the EC50 is less than 1000 nM.

As for `Cc1sc2c(N3CCOCC3)c(C(=O)N[C@H]3CCOc4ccccc43)cnc2c1-c1cc(Cl)cc(Cl)c1` [Compound 68], the EC50 was less than 1000 nM.

Regarding `Cc1sc2c(N3CCOCC3)c(C(=O)N[C@H]3CCCc4ccccc43)cnc2c1-c1cccc(Cl)c1Cl` [Compound 71], the EC50 is less than 1000 nM.

`Cc1sc2c(N3CCOCC3)c(C(=O)N[C@H]3CCOc4ccccc43)cnc2c1-c1cccc(Cl)c1Cl` [Compound 72] displayed an EC50 of less than 1000 nM.

For the compound `Cc1sc2c(N3CCOCC3)c(C(=O)N[C@H]3CCc4ccccc43)cnc2c1-c1cccc(Cl)c1Cl` [Compound 73], the 50% effective concentration (EC50) was less than 1000 nM.

In turn, `Cc1sc2c(N3CCOCC3)c(C(=O)Nc3cccc4ccccc34)cnc2c1-c1cccc(Cl)c1Cl` [Compound 74] returned an EC50 of less than 10000 nM.

On to `Cc1cccc(-c2csc3c(N(C)C)c(C(=O)N[C@H]4CCOc5ccccc54)cnc23)c1C` [Compound 75], for which the EC50 is less than 1000 nM.

In turn, `O=C(N[C@H]1CCOc2ccccc21)c1cnc2c(-c3cccc(F)c3F)csc2c1N1CCC1` [Compound 85] displayed a concentration giving a half-maximal response (EC50) of less than 1000 nM.

Turning to `O=C(N[C@H]1CCOc2ccccc21)c1cnc2c(-c3cccc(C(F)(F)F)c3)csc2c1N1CCC1` [Compound 90], the EC50 is less than 10000 nM.

As for `O=C(N[C@H]1CCOc2ccccc21)c1cnc2c(-c3cccc(F)c3F)csc2c1N1CC(F)C1` [Compound 91], the 50% effective concentration (EC50) is less than 1000 nM.

For the compound `O=C(N[C@H]1CCOc2ccccc21)c1cnc2c(-c3cc(F)cc(F)c3)csc2c1N1CC(F)C1` [Compound 92], the 50% effective concentration (EC50) was less than 10000 nM.

`O=C(N[C@H]1CCOc2ccccc21)c1cnc2c(-c3cccc(C(F)(F)F)c3)csc2c1N1CC(F)C1` [Compound 93]: the EC50 was less than 10000 nM.

In turn, `CN(C)c1c(C(=O)NC2COc3ccccc32)cnc2c(-c3cc(Cl)cc(Cl)c3)csc12` (stereo not shown) [Compound 96] showed a concentration for a half-maximal effect (EC50) of less than 10000 nM.

`O=C(N[C@H]1CCc2ccccc21)c1cnc2c(-c3cccc(Cl)c3Cl)csc2c1N1CC(F)C1` [Compound 99] had an EC50 of less than 1000 nM.

`Cc1sc2c(N(C)C)c(C(=O)N[C@H]3CCOc4ccccc43)cnc2c1-c1cc(F)cc(F)c1F` [Compound 102] yielded a concentration for a half-maximal effect (EC50) of less than 1000 nM.

`Cc1sc2c(N(C)C)c(C(=O)N[C@H]3CCOc4ccccc43)cnc2c1-c1cc(F)cc(F)c1` [Compound 103]: the half-maximal effective concentration (EC50) is less than 1000 nM.

For `Cc1sc2c(N(C)C)c(C(=O)N[C@H]3CCOc4ccccc43)cnc2c1-c1cccc(C(F)(F)F)c1` [Compound 104], the EC50 was less than 1000 nM.

In the case of `Cc1sc2c(N(C)C)c(C(=O)N[C@H]3CCOc4ccccc43)cnc2c1-c1cccc(OC(F)(F)F)c1` [Compound 105], the concentration giving a half-maximal response (EC50) is less than 1000 nM.

As to `Cc1sc2c(N3CCOCC3)c(C(=O)N[C@H]3CCOc4ccccc43)cnc2c1-c1cc(F)cc(F)c1F` [Compound 106], the EC50 was less than 1000 nM.

`Cc1sc2c(N3CCOCC3)c(C(=O)N[C@H]3CCOc4ccccc43)cnc2c1-c1cc(F)cc(F)c1` [Compound 107]: the EC50 was less than 1000 nM.

In turn, `Cc1sc2c(N3CCOCC3)c(C(=O)N[C@H]3CCOc4ccccc43)cnc2c1-c1cccc(C(F)(F)F)c1` [Compound 108] registered an EC50 of less than 1000 nM.

Take `Cc1sc2c(N3CCOCC3)c(C(=O)N[C@H]3CCOc4ccccc43)cnc2c1-c1cccc(OC(F)(F)F)c1` [Compound 109]: the EC50 was less than 10000 nM.

As to `Cc1sc2c(N3CCOCC3)c(C(=O)N[C@H]3CCc4ccccc43)cnc2c1-c1cc(F)cc(F)c1F` [Compound 110], the EC50 is less than 1000 nM.

In the case of `Cc1sc2c(N3CCOCC3)c(C(=O)N[C@H]3CCc4ccccc43)cnc2c1-c1cc(F)cc(F)c1` [Compound 111], the EC50 is less than 1000 nM.

Regarding `Cc1sc2c(N3CCOCC3)c(C(=O)N[C@H]3CCc4ccccc43)cnc2c1-c1cccc(C(F)(F)F)c1` [Compound 112], the EC50 is less than 1000 nM.

Compound `Cc1sc2c(N3CCOCC3)c(C(=O)N[C@H]3CCc4ccccc43)cnc2c1-c1cccc(OC(F)(F)F)c1` [Compound 113] registered an EC50 of less than 1000 nM.

The EC50 is the concentration that produces a half-maximal response. Lower therefore signals higher potency in that assay.
